± gives the standard deviation of the averaged measurements. Laboratory Escherichia coli strains with one amino-acid change in an essential protein, pooled on minimal glucose agar with carbenicillin or gentamicin at twice the control MIC (plus kanamycin and chloramphenicol for the plasmids), 48 h. Fold change of barcode share against drug-free plates; higher = less susceptible. Active = above 20 in both replicates (the paper's putatively resistant). '<' = one read or none on drug, '>' = one read or none on a drug-free plate. Shares are relative, so most strains fall below 1 when a few take over. Listed are strains with at least 15 reads on both drug-free plates, and hits; most hits rest on fewer reference reads. Replicate rank correlation about 0.5. Edits are read from barcodes.
Target: Escherichia coli (laboratory strain)
Assay: barcode share on antibiotic plates over drug-free plates; higher = less susceptible
Procedure: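 A pool of E. coli strains, each edited to carry one amino-acid change in an essential protein, was grown for 48 h on minimal glucose agar with or without antibiotic; strain barcodes were sequenced; mean of two replicates.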

[1] = antibiotic: carbenicillin, 2× MIC (3.1 µg/mL)
[2] = antibiotic: gentamicin, 2× MIC (MIC 0.45 µg/mL)

Row | Protein | fold change of barcode share [1] | fold change of barcode share [2]
1 | fabZ L25W (protein) MTTNTHTLQIEEILELLPHRFPFLWVDRVLDFEEGRFLRAVKNVSVNEPFFQGHFPGKPIFPGVLILEAMAQATGILAFKSVGKLEPGELYYFAGIDEARFKRPVVPGDQMIMEVTFEKTRRGLTRFKGVALVDGKVVCEATMMCARSREA | 1.09 ± 0.3 | 0.00915 ± 0.0069
2 | fabZ V26A (protein) MTTNTHTLQIEEILELLPHRFPFLLADRVLDFEEGRFLRAVKNVSVNEPFFQGHFPGKPIFPGVLILEAMAQATGILAFKSVGKLEPGELYYFAGIDEARFKRPVVPGDQMIMEVTFEKTRRGLTRFKGVALVDGKVVCEATMMCARSREA | 0.488 ± 0.43 | 0.00759 ± 0.0039
3 | fabZ M144W (protein) MTTNTHTLQIEEILELLPHRFPFLLVDRVLDFEEGRFLRAVKNVSVNEPFFQGHFPGKPIFPGVLILEAMAQATGILAFKSVGKLEPGELYYFAGIDEARFKRPVVPGDQMIMEVTFEKTRRGLTRFKGVALVDGKVVCEATMWCARSREA | 0.683 ± 0.34 | 0.00603 ± 0.003
4 | fabZ F23A (protein) MTTNTHTLQIEEILELLPHRFPALLVDRVLDFEEGRFLRAVKNVSVNEPFFQGHFPGKPIFPGVLILEAMAQATGILAFKSVGKLEPGELYYFAGIDEARFKRPVVPGDQMIMEVTFEKTRRGLTRFKGVALVDGKVVCEATMMCARSREA | 0.163 ± 0.02 | < 0.011
5 | fabZ L25Q (protein) MTTNTHTLQIEEILELLPHRFPFLQVDRVLDFEEGRFLRAVKNVSVNEPFFQGHFPGKPIFPGVLILEAMAQATGILAFKSVGKLEPGELYYFAGIDEARFKRPVVPGDQMIMEVTFEKTRRGLTRFKGVALVDGKVVCEATMMCARSREA | 0.158 ± 0.072 | < 0.00609
6 | fabZ L24Q (protein) MTTNTHTLQIEEILELLPHRFPFQLVDRVLDFEEGRFLRAVKNVSVNEPFFQGHFPGKPIFPGVLILEAMAQATGILAFKSVGKLEPGELYYFAGIDEARFKRPVVPGDQMIMEVTFEKTRRGLTRFKGVALVDGKVVCEATMMCARSREA | 1.08 ± 1.2 | < 0.0107
7 | fabZ M144P (protein) MTTNTHTLQIEEILELLPHRFPFLLVDRVLDFEEGRFLRAVKNVSVNEPFFQGHFPGKPIFPGVLILEAMAQATGILAFKSVGKLEPGELYYFAGIDEARFKRPVVPGDQMIMEVTFEKTRRGLTRFKGVALVDGKVVCEATMPCARSREA | 0.324 ± 0.095 | < 0.0141
8 | fabZ M144A (protein) MTTNTHTLQIEEILELLPHRFPFLLVDRVLDFEEGRFLRAVKNVSVNEPFFQGHFPGKPIFPGVLILEAMAQATGILAFKSVGKLEPGELYYFAGIDEARFKRPVVPGDQMIMEVTFEKTRRGLTRFKGVALVDGKVVCEATMACARSREA | 0.374 ± 0.018 | < 0.0156
9 | fabZ M113A (protein) MTTNTHTLQIEEILELLPHRFPFLLVDRVLDFEEGRFLRAVKNVSVNEPFFQGHFPGKPIFPGVLILEAMAQATGILAFKSVGKLEPGELYYFAGIDEARFKRPVVPGDQMIAEVTFEKTRRGLTRFKGVALVDGKVVCEATMMCARSREA | 0.397 ± 0.17 | 0.012 ± 0.011
10 | fabZ L67A (protein) MTTNTHTLQIEEILELLPHRFPFLLVDRVLDFEEGRFLRAVKNVSVNEPFFQGHFPGKPIFPGVLIAEAMAQATGILAFKSVGKLEPGELYYFAGIDEARFKRPVVPGDQMIMEVTFEKTRRGLTRFKGVALVDGKVVCEATMMCARSREA | 0.631 ± 0.19 | 0.00718 ± 0.0044
11 | fabZ F23Q (protein) MTTNTHTLQIEEILELLPHRFPQLLVDRVLDFEEGRFLRAVKNVSVNEPFFQGHFPGKPIFPGVLILEAMAQATGILAFKSVGKLEPGELYYFAGIDEARFKRPVVPGDQMIMEVTFEKTRRGLTRFKGVALVDGKVVCEATMMCARSREA | 1.57 ± 1.9 | < 0.0147
12 | fabZ M144Q (protein) MTTNTHTLQIEEILELLPHRFPFLLVDRVLDFEEGRFLRAVKNVSVNEPFFQGHFPGKPIFPGVLILEAMAQATGILAFKSVGKLEPGELYYFAGIDEARFKRPVVPGDQMIMEVTFEKTRRGLTRFKGVALVDGKVVCEATMQCARSREA | 0.2755 ± 0.0011 | 0.0125 ± 0.0069
13 | fabZ L24A (protein) MTTNTHTLQIEEILELLPHRFPFALVDRVLDFEEGRFLRAVKNVSVNEPFFQGHFPGKPIFPGVLILEAMAQATGILAFKSVGKLEPGELYYFAGIDEARFKRPVVPGDQMIMEVTFEKTRRGLTRFKGVALVDGKVVCEATMMCARSREA | 0.247 ± 0.017 | 0.00756 ± 0.0021
14 | argA V399Q (protein) MVKERKTELVEGFRHSVPYINTHRGKTFVIMLGGEAIEHENFSSIVNDIGLLHSLGIRLVVVYGARPQIDANLAAHHHEPLYHKNIRVTDAKTLELVKQAAGTLQLDITARLSMSLNNTPLQGAHINVVSGNFIIAQPLGVDDGVDYCHSGRIRRIDEDAIHRQLDSGAIVLMGPVAVSVTGESFNLTSEEIATQLAIKLKAEKMIGFCSSQGVTNDDGDIVSELFPNEAQARVEAQEEKGDYNSGTVRFLRGAVKACRSGVRRCHLISYQEDGALLQELFSRDGIGTQIVMESAEQIRRATINDIGGILELIRPLEQQGILVRRSREQLEMEIDKFTIIQRDNTTIACAALYPFPEEKIGEMACVAVHPDYRSSSRGEVLLERIAAQAKQSGLSKLFQLTTRSIHWFQERGFTPVDIDLLPESKKQLYNYQRKSKVLMADLG | 0.413 ± 0.18 | 
15 | argA V399P (protein) MVKERKTELVEGFRHSVPYINTHRGKTFVIMLGGEAIEHENFSSIVNDIGLLHSLGIRLVVVYGARPQIDANLAAHHHEPLYHKNIRVTDAKTLELVKQAAGTLQLDITARLSMSLNNTPLQGAHINVVSGNFIIAQPLGVDDGVDYCHSGRIRRIDEDAIHRQLDSGAIVLMGPVAVSVTGESFNLTSEEIATQLAIKLKAEKMIGFCSSQGVTNDDGDIVSELFPNEAQARVEAQEEKGDYNSGTVRFLRGAVKACRSGVRRCHLISYQEDGALLQELFSRDGIGTQIVMESAEQIRRATINDIGGILELIRPLEQQGILVRRSREQLEMEIDKFTIIQRDNTTIACAALYPFPEEKIGEMACVAVHPDYRSSSRGEVLLERIAAQAKQSGLSKLFPLTTRSIHWFQERGFTPVDIDLLPESKKQLYNYQRKSKVLMADLG | 0.37 ± 0.17 | 
16 | argA L172A (protein) MVKERKTELVEGFRHSVPYINTHRGKTFVIMLGGEAIEHENFSSIVNDIGLLHSLGIRLVVVYGARPQIDANLAAHHHEPLYHKNIRVTDAKTLELVKQAAGTLQLDITARLSMSLNNTPLQGAHINVVSGNFIIAQPLGVDDGVDYCHSGRIRRIDEDAIHRQLDSGAIVAMGPVAVSVTGESFNLTSEEIATQLAIKLKAEKMIGFCSSQGVTNDDGDIVSELFPNEAQARVEAQEEKGDYNSGTVRFLRGAVKACRSGVRRCHLISYQEDGALLQELFSRDGIGTQIVMESAEQIRRATINDIGGILELIRPLEQQGILVRRSREQLEMEIDKFTIIQRDNTTIACAALYPFPEEKIGEMACVAVHPDYRSSSRGEVLLERIAAQAKQSGLSKLFVLTTRSIHWFQERGFTPVDIDLLPESKKQLYNYQRKSKVLMADLG | 0.682 ± 0.34 | 0.0135 ± 0.0054
17 | fbaA V105A (protein) MSKIFDFVKPGVITGDDVQKVFQVAKENNFALPAVNCVGTDSINAVLETAAKVKAPVIVQFSNGGASFIAGKGVKSDVPQGAAILGAISGAHHVHQMAEHYGVPAILHTDHCAKKLLPWIDGLLDAGEKHFAATGKPLFSSHMIDLSEESLQENIEICSKYLERMSKIGMTLEIELGCTGGEEDGVDNSHMDASALYTQPEDVDYAYTELSKISPRFTIAASFGNVHGVYKPGNVVLTPTILRDSQEYVSKKHNLPHNSLNFVFHGGSGSTAQEIKDSVSYGVVKMNIDTDTQWATWEGVLNYYKANEAYLQGQLGNPKGEDQPNKKYYDPRVWLRAGQTSMIARLEKAFQELNAIDVL | 0.207 ± 0.1 | 0.194 ± 0.27
18 | fbaA I106Q (protein) MSKIFDFVKPGVITGDDVQKVFQVAKENNFALPAVNCVGTDSINAVLETAAKVKAPVIVQFSNGGASFIAGKGVKSDVPQGAAILGAISGAHHVHQMAEHYGVPVQLHTDHCAKKLLPWIDGLLDAGEKHFAATGKPLFSSHMIDLSEESLQENIEICSKYLERMSKIGMTLEIELGCTGGEEDGVDNSHMDASALYTQPEDVDYAYTELSKISPRFTIAASFGNVHGVYKPGNVVLTPTILRDSQEYVSKKHNLPHNSLNFVFHGGSGSTAQEIKDSVSYGVVKMNIDTDTQWATWEGVLNYYKANEAYLQGQLGNPKGEDQPNKKYYDPRVWLRAGQTSMIARLEKAFQELNAIDVL | 0.484 ± 0.032 | 

Reference: the supplement of paper PMC11876631
